Measurements reported in publication PMC9911399, “Two distinct binding modes provide the RNA-binding protein RbFox with extraordinary sequence specificity”.
Substitutions are numbered along the chain they refer to; changes in the protein carry UniProt numbers. This is one part of the list.

B1: UCACGAC (DNA:RNA)
RNA: GGGAGACCGGAAUUCAGAUUGUCCUCACGACUUAAAUCCCGUCGUAGCCACCA
DNA 1: CAATCTGAATTCCGGTCTCCC
DNA 2: TGGTGGCTACGACGGGATT
B2: CUCAAGA (DNA:RNA)
RNA: GGGAGACCGGAAUUCAGAUUGUCCCUCAAGAUUAAAUCCCGUCGUAGCCACCA
DNA 1: CAATCTGAATTCCGGTCTCCC
DNA 2: TGGTGGCTACGACGGGATT
B3: CCCGUUC (DNA:RNA)
RNA: B2 RNA with U26C, A28G, A29U, G30U, A31C
DNA 1: CAATCTGAATTCCGGTCTCCC
DNA 2: TGGTGGCTACGACGGGATT
B4: GAGAGGA (DNA:RNA)
RNA: B2 RNA with C25G, U26A, C27G, A29G
DNA 1: CAATCTGAATTCCGGTCTCCC
DNA 2: TGGTGGCTACGACGGGATT
B5: UACUGGG (DNA:RNA)
RNA: B2 RNA with C25U, U26A, A28U, A29G, A31G
DNA 1: CAATCTGAATTCCGGTCTCCC
DNA 2: TGGTGGCTACGACGGGATT
B6: UCACGGG (DNA:RNA)
RNA: B1 RNA with A30G, C31G
DNA 1: CAATCTGAATTCCGGTCTCCC
DNA 2: TGGTGGCTACGACGGGATT
B7: CAGGCAU (DNA:RNA)
RNA: B2 RNA with U26A, C27G, A28G, A29C, G30A, A31U
DNA 1: CAATCTGAATTCCGGTCTCCC
DNA 2: TGGTGGCTACGACGGGATT
B8: UUAUCGG (DNA:RNA)
RNA: B2 RNA with C25U, C27A, A28U, A29C, A31G
DNA 1: CAATCTGAATTCCGGTCTCCC
DNA 2: TGGTGGCTACGACGGGATT
B9: AUCCACU (DNA:RNA)
RNA: B2 RNA with C25A, A28C, G30C, A31U
DNA 1: CAATCTGAATTCCGGTCTCCC
DNA 2: TGGTGGCTACGACGGGATT
B10: UGACUAG (DNA:RNA)
RNA: B1 RNA with C26G, G29U, C31G
DNA 1: CAATCTGAATTCCGGTCTCCC
DNA 2: TGGTGGCTACGACGGGATT
B11: AAGGAAC (DNA:RNA)
RNA: B1 RNA with U25A, C26A, A27G, C28G, G29A
DNA 1: CAATCTGAATTCCGGTCTCCC
DNA 2: TGGTGGCTACGACGGGATT
B12: GUAGCCA (DNA:RNA)
RNA: B2 RNA with C25G, C27A, A28G, A29C, G30C
DNA 1: CAATCTGAATTCCGGTCTCCC
DNA 2: TGGTGGCTACGACGGGATT
B13: GUUAUGA (DNA:RNA)
RNA: B2 RNA with C25G, C27U, A29U
DNA 1: CAATCTGAATTCCGGTCTCCC
DNA 2: TGGTGGCTACGACGGGATT
B14: CUCGGUG (DNA:RNA)
RNA: B2 RNA with A28G, A29G, G30U, A31G
DNA 1: CAATCTGAATTCCGGTCTCCC
DNA 2: TGGTGGCTACGACGGGATT
B15: CCGAACA (DNA:RNA)
RNA: B2 RNA with U26C, C27G, G30C
DNA 1: CAATCTGAATTCCGGTCTCCC
DNA 2: TGGTGGCTACGACGGGATT
B16: AGAACGC (DNA:RNA)
RNA: B2 RNA with C25A, U26G, C27A, A29C, A31C
DNA 1: CAATCTGAATTCCGGTCTCCC
DNA 2: TGGTGGCTACGACGGGATT
B17: CUCCAGU (DNA:RNA)
RNA: B2 RNA with A28C, A31U
DNA 1: CAATCTGAATTCCGGTCTCCC
DNA 2: TGGTGGCTACGACGGGATT
B18: AAGGGCA (DNA:RNA)
RNA: B2 RNA with C25A, U26A, C27G, A28G, A29G, G30C
DNA 1: CAATCTGAATTCCGGTCTCCC
DNA 2: TGGTGGCTACGACGGGATT
B19: CCGCAAU (DNA:RNA)
RNA: B1 RNA with U25C, A27G, G29A, C31U
DNA 1: CAATCTGAATTCCGGTCTCCC
DNA 2: TGGTGGCTACGACGGGATT
B20: GGCUUGU (DNA:RNA)
RNA: B2 RNA with C25G, U26G, A28U, A29U, A31U
DNA 1: CAATCTGAATTCCGGTCTCCC
DNA 2: TGGTGGCTACGACGGGATT

These binders were tested against T1, RBFOX1 RRM (Homo sapiens, UniProt Q9NWB1 109-208) (assay: EMSA; HiTS-Eq, 1 nM pool, 10 min; buffer printed only for the single-RNA assays: 10 mM Tris pH 7.5, 150 mM NaCl, 3.4 mM EDTA, 0.001% NP-40, 30 C). Conditions: tags: His6 N-terminal (pET28a); label: 5' 32P.
T1 sequence: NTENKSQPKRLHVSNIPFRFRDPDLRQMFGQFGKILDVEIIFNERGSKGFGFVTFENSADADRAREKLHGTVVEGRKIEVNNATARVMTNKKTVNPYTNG
In short: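 Purified wild-type or mutant RbFox RRM at increasing concentrations was equilibrated with 1 nM of 5′-radiolabelled RNA carrying 7 randomized nucleotides for 10 min in 50 µL. Unbound RNA was separated by 8% native PAGE and sequenced. Relative association constants came from read-count changes of each RNA species compared with the control reaction, normalised to the cognate motif.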

| Binder | binding signal |
| --- | --- |
| B1 | 0.00315 KA relative to UGCAUGU |
| B2 | 0.00602 KA relative to UGCAUGU |
| B3 | 0.0176 KA relative to UGCAUGU |
| B4 | 0.00431 KA relative to UGCAUGU |
| B5 | 0.00793 KA relative to UGCAUGU |
| B6 | 0.00744 KA relative to UGCAUGU |
| B7 | 0.0133 KA relative to UGCAUGU |
| B8 | 0.0105 KA relative to UGCAUGU |
| B9 | 0.000326 KA relative to UGCAUGU |
| B10 | 0.0169 KA relative to UGCAUGU |
| B11 | 0.0107 KA relative to UGCAUGU |
| B12 | 0.0047 KA relative to UGCAUGU |
| B13 | 0.0144 KA relative to UGCAUGU |
| B14 | 0.0185 KA relative to UGCAUGU |
| B15 | 0.00725 KA relative to UGCAUGU |
| B16 | 0.00573 KA relative to UGCAUGU |
| B17 | 0.00611 KA relative to UGCAUGU |
| B18 | 0.00713 KA relative to UGCAUGU |
| B19 | 0.00521 KA relative to UGCAUGU |
| B20 | 0.0205 KA relative to UGCAUGU |
